# Results reported in PMC4336329 (PLoS ONE, 2015).
# The whole screen tested about 310,000 compounds, of which about 2,200 (0.71%) showed an effect of 50% or more. The effect is printed as a negative number. The list shows a part of the results.
# Target: human ether-à-go-go-related gene (hERG) potassium channel (human, UniProt Q12809)
# Assay: primary screen, population patch clamp on CHO cells stably expressing hERG
# Chain of human ether-à-go-go-related gene (hERG) potassium channel (Q12809 whole entry, looked up): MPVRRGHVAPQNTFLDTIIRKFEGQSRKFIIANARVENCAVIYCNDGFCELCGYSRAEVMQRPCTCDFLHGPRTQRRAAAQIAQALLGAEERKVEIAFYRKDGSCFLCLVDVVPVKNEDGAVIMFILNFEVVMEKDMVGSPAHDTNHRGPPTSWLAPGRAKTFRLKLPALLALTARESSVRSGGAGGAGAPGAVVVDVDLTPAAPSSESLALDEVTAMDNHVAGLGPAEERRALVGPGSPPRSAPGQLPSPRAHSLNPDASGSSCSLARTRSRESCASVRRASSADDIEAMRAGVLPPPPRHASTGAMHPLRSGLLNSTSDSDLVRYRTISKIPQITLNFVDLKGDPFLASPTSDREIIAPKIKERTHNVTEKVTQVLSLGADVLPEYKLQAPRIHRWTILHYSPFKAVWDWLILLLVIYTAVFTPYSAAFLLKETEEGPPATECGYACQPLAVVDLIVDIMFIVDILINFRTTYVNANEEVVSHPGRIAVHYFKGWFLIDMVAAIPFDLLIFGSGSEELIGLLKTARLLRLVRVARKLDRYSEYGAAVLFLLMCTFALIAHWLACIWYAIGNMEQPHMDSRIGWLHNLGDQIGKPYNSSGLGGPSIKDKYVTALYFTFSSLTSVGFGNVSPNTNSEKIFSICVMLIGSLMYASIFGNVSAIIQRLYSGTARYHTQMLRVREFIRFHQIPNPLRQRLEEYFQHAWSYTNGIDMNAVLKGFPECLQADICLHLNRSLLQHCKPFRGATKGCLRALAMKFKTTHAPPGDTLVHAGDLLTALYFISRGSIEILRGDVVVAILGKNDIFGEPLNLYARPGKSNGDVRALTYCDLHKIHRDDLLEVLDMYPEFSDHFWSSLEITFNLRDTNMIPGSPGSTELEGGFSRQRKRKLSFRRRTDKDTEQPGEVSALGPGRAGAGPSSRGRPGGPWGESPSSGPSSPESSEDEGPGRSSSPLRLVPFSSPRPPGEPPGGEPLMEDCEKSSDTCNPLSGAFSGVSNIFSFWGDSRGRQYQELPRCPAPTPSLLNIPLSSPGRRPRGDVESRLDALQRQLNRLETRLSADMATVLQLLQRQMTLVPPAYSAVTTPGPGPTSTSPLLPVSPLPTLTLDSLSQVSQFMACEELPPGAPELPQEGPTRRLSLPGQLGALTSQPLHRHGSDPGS
row,Compound,"hERG current change (%, negative = inhibition) at 1uM"
1,COc1ccccc1NC(=S)N(Cc1ccc(C)cc1)Cc1cccnc1,-6.19%
2,COCc1cc(=O)oc2cc(NC(=O)c3ccc(C(C)(C)C)cc3)ccc12,12.2%
3,COc1cc(C(=O)N(c2ccc(C)c(C)c2)C2C=CS(=O)(=O)C2)cc(OC)c1OC (stereo not drawn),-5.4%
4,COc1ccc(C(=O)NNC(=O)c2cc(C)[nH]n2)cc1,10.6%
5,S=c1[nH]c(-c2ccccc2)cn1-c1ccccc1,14.8%
6,COC(=O)c1ccc(C2C(Oc3ccc(OC)cc3)C(=O)N2CCc2ccc(OC)c(OC)c2)cc1 (stereo not drawn),5.41%
7,CC(=O)Nc1ccc(S(=O)(=O)NC2C3(C)CCC(C3)C2(C)C)cc1 (stereo not drawn),12.6%
8,CC(NC(=O)[C@H](C)NC(=O)N1CCn2c1nc1ccccc12)c1ccccc1 (stereo partly drawn),9.09%
9,O=C(CN(C(=O)c1csnn1)c1ccccc1)NCCc1ccccc1,9.21%
10,CN(C)CCCN1C(=O)CSC1c1ccc([N+](=O)[O-])cc1.Cl (stereo not drawn),-11.4%
11,CC(=O)N1c2ccccc2Sc2ccccc21,12.6%
12,CCOC(=O)Cn1cnc2c(nnn2Cc2ccc(Cl)cc2)c1=O,10.8%
13,CC1(C)CC2CC(C)(CN2C(=O)COC(=O)c2cccc(O)c2)C1 (stereo not drawn),9.01%
14,Cn1c(C(=O)N2CCN(c3ncccn3)CC2)cc2c(=O)n(C)c3ccccc3c21,5.3%
15,CC(C)(C)c1ccc(C(=O)NCCC(=O)N2CCC3(CC2)NCCc2[nH]cnc23)cc1,18.3%
16,Cn1c(CNC(=O)CCNC(=O)c2cccc(Br)c2)cc(=O)n(C)c1=O,9.17%
17,COc1ccc(NC2=C(c3ccc(OC)cc3)C(=O)c3ccccc32)cc1,-0.121%
18,COc1ccccc1NC(=S)Nc1ccc2cn[nH]c2c1,3.6%
19,Nc1ccn(CC(=O)NCc2ccccn2)c(=O)n1,3.14%

row,Compound,"hERG current change (%, negative = inhibition) at 1uM"
1,O=C(CCC(=O)N(CC(=O)NC1CCCC1)C1CCCCC1)Nc1ccccn1,4.9%
2,O=C1NC(=O)N(Cc2ccccc2)C(=O)/C1=C\c1ccco1,-5.3%
3,CCN(CC(=O)N1CCCC1)S(=O)(=O)c1ccccc1,16.4%
4,Clc1ccc(CNCCc2ccc3c(c2)OCO3)cc1.O=C(O)C(=O)O,-16.4%
5,CCOc1ccc(CNC(=O)CCC(=O)n2ncc3ccc(Cl)cc32)cc1,2.78%
6,CC(=O)c1cccc(NC(=O)Nc2ccccc2)c1,15.7%
7,CCN1CCN(C(=O)c2ccc(Cl)c(S(=O)(=O)N3CCOCC3)c2)CC1,6.75%
8,COC(=O)c1c(NC(=O)c2c(-c3ccccc3Cl)noc2C)sc2c1CCC2,7.12%
9,O=Cc1cc([N+](=O)[O-])ccc1N1CCOCC1,5.17%
10,Cc1ccc2cc(C#N)c(NCCNC(=S)NCCCN3CCOCC3)nc2c1,-5.49%
11,CC(=O)CSc1cc(-c2ccccc2)nc2ncnn12,13.3%
12,COc1cccc(N2CCN(S(=O)(=O)c3c(C)[nH]c(C)c3C(=O)N3CCCCC3)CC2)c1,15.2%
13,CC(C)N(Cc1nccn1C)C(=O)c1cc(COc2cccc(C(F)(F)F)c2)on1,-0.863%
14,Cc1ccc(CNC(=O)c2cc(S(=O)(=O)N3CCCC3)cn2C)cc1,11.4%
15,Cc1ccccc1OCCC(=O)Nc1ccc(F)c(Cl)c1,13.7%
16,Cc1cc2nnc(SCC(=O)NCc3cccs3)n2c2ccccc12,-2.94%
17,CC(C)(C)C(=O)Nc1sc(-c2ccccc2)cc1C(=O)O,14.9%
18,O=C(Nc1ccc(-c2nc3ccccc3o2)cc1)c1ccc(N2CCOCC2)c([N+](=O)[O-])c1,-0.433%
19,N/N=C/C(=N\Nc1ccc(Cl)cc1)C(=O)c1ccncc1,9.72%

row,Compound,"hERG current change (%, negative = inhibition) at 1uM"
1,COc1ccc(Cl)cc1NC(=S)NCc1ccc(S(N)(=O)=O)cc1,14.4%
2,CCCCCCCNC(=O)C1(CC2CC(c3ccc(Cl)cc3)=NO2)CCNCC1 (stereo not drawn),-24.3%
3,COc1ccc(C2=NN(C(C)=O)C(c3cccs3)C2)cc1OC (stereo not drawn),11.7%
4,O=C(NCc1ccc(Cl)cc1)c1ccc(S(=O)(=O)N2CCCCC2)cc1,15.4%
5,CC(=O)OC1C2CCCC1C(N1CCCC1)CC2.Cl (stereo not drawn),0.62%
6,CC(=O)Oc1ccc(C(=O)Nc2ccccc2C(=O)Nc2cccc(C(=O)O)c2)cc1,15%
7,COc1ccc(C(=O)NC(NC(=O)c2ccc(OC)c(OC)c2)c2ccccc2F)cc1OC,5.21%
8,COc1ccccc1CN(C)c1nnnn1-c1ccccc1,7.13%
9,Cc1ccc(S(=O)(=O)NCC(c2ccc3c(c2)OCO3)N2CCOCC2)cc1 (stereo not drawn),7.54%
10,CCN(CC)c1ccc(NC(=O)c2cnn(CC)c2)cc1,-1.75%
11,O=C(CCC(=O)OCC(=O)c1ccc(C(F)(F)F)cc1)OCC(=O)c1ccc(C(F)(F)F)cc1,11.4%
12,COc1ccccc1CNC(=O)CCCC(=O)n1ncc2cc(C)ccc21,7.25%
13,CN(C)c1ccnc(Nc2ccc(O)cc2)c1C#N,16.3%
14,CCc1ccc(CCC(=O)Nc2ccc(S(N)(=O)=O)cc2)o1,5.31%
15,COc1cc(-c2nnc(SC/C=C/c3ccccc3)n2N)cc(OC)c1OC,16.5%
16,O=C(Cc1ccccc1Cl)N1CCN(c2ncccn2)CC1,3.97%
17,Cc1ccc(-n2nnnc2SCc2nnc(-c3ccccc3Br)o2)cc1,7.79%
18,CC1(C)CSC(Nc2ccc(F)c(Cl)c2)=N1,1.51%
19,COc1ccc(CN2CCNC(=O)C2CC(=O)NCCCC2CCCC2)c(F)c1 (stereo not drawn),3.19%
